# Data from PMC9574860, “Chemical Toolkit for PARK7: Potent, Selective, and High-Throughput” (Journal of Medicinal Chemistry, 2022).
# The whole screen tested about 7,900 compounds, of which about 400 (5.1%) showed an effect of 50% or more. Some of the results follow.
# Target: Parkinson's disease protein 7 (PARK7/DJ1) (human, UniProt Q99497)
# Experiment: primary screen, percent inhibition; read as competition with a fluorescent probe by fluorescence polarization; higher = more effect of the substance
# Details: 100 µM
# How it was run: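 Fluorescence-polarization probe displacement (JYQ-107, 20 nM final, 2 h) after 2 h preincubation of PARK7 (0.2 μM final) with each fragment at 100 μM final. Read-out ex/em 480/520 nm; remaining activity derived from FP signal loss relative to reference controls.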
# Chain of Parkinson's disease protein 7 (PARK7/DJ1) (Q99497 whole entry, looked up): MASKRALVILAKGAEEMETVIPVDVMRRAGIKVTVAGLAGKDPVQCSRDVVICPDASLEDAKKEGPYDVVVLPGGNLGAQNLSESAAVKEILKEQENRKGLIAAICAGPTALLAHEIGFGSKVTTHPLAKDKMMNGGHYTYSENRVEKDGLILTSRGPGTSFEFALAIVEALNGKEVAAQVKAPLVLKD
row,Compound,Inhibition % [%]
1,Cn1cc(S(=O)(=O)Oc2cccc(F)c2C#N)cn1,4.8
2,C=CC(=O)N1CCC(Cc2cnn(C)c2)C1 (stereo not shown),2.37
3,C=CC(=O)N1CC(Cc2cccs2)C1,12.5
4,Cc1nnc(S)c(C#N)c1C,53.3
5,Cc1cc2nnc(SC3CC(C)OC3=O)n2c(C)n1 (stereo not shown),6.64
6,CCOc1cc(S(=O)(=O)n2cccn2)ccc1F,0.878
7,C=CC(=O)N1CCCC(c2ncccn2)C1 (stereo not shown),3.35
8,O=S(=O)(F)Cc1ccccc1,8.98
9,C=CC(=O)N1CCCCC(SC)C1 (stereo not shown),9.96
10,N#Cc1ncn(Cc2ccc(C(N)=O)cc2)n1,8.99
11,C=CC(=O)N1C2CCC1c1cnc(C(C)C)nc1C2 (stereo not shown),9.29
12,COc1cc(C(=O)O)ccc1S(=O)(=O)F,31.2
13,Oc1ccnc(S)n1,2.99
14,CC1(C)OB(c2cccc(OCCCN3CCCC3)c2)OC1(C)C,1.19
15,C=CC(=O)N1CCOC(COc2ccccc2)C1 (stereo not shown),11
16,CCNC(=O)N1CCC(NC(=O)c2cccnc2S)C1 (stereo not shown),37.6
17,Cc1cc(C)n(Cc2ccc(B3OC(C)(C)C(C)(C)O3)cc2)n1,0.0918
18,N#Cc1nnc(-c2ccccc2)s1,11.8
19,COc1cc(C=C(C#N)C(=O)NC(C)C)cc(Cl)c1O,-0.272
20,C=CC(=O)NC1(c2ccc(C(F)(F)F)cc2)CC1,6.09
21,CN(Cc1ccco1)c1ccc(C#N)nc1,25.1
22,C=CC(=O)N1CC(S(=O)(=O)CC)C1,5.18
23,OB(O)c1ccccc1CN1CCCCC1,2.94
24,C=CC(=O)N1CC(S(C)(=O)=O)C1,8.7
25,O=C(O)Cn1nc(-c2ccc(F)cc2)oc1=O,12.4
26,Cl.O=C(CCl)c1csc(N2CCCCC2)n1,2.02
27,CC1(C)CCCN1C(=O)CCl,10.8

row,Compound,Inhibition % [%]
1,C=CC(=O)N1CCCCC1Cn1cccn1 (stereo not shown),1.43
2,C=CC(=O)NC1CCC(=O)N(C)C1 (stereo not shown),10.9
3,C=CC(=O)N1CCc2nc(CC)ncc2C1,10.8
4,O=C(CCl)NCc1ccc(Cl)s1,15.9
5,CC1(C)OB(c2ccc(S(C)(=O)=O)c(C#N)c2)OC1(C)C,5.87
6,OCCc1cnc(S)nc1,8.67
7,N#Cc1ccc(C(=O)NNC(=O)CCl)cc1,6.48
8,CC1(C)CNC(=S)NC1,2.51
9,Cc1ccc(Sc2ccc(NC(=O)CCl)cc2)c(C)c1,25.5
10,O=C(Nc1cccc(S(=O)(=O)F)c1)c1sccc1OC(F)F,93.1
11,CNC(=O)CNS(=O)(=O)C=Cc1ccccc1,6.07
12,CC(NC(=O)C(C#N)=Cc1cccnc1)c1ccccc1 (stereo not shown),-2.97
13,O=C(c1cc(Cl)ccc1O)N1CCC(C2OCCO2)CC1,6.92
14,N#Cc1ccc(C(=O)O)c(=O)[nH]1,83.7
15,Cc1ccc(C2CO2)cc1C (stereo not shown),29.8
16,CC1CCCN(c2ccc(C#N)nc2)CC1 (stereo not shown),11.3
17,C=CC(=O)N1CC(=O)N(CCOC)C1,8.08
18,NS(=O)(=O)c1ccc(NC(=O)Oc2ccccc2)cc1,5.06
19,CCC(NC(=O)CCl)c1ccc(Cl)cc1 (stereo not shown),14.1
20,Cc1ccc2[nH]c(C3CCCN3C(=O)c3ccc(B(O)O)cc3)nc2c1 (stereo not shown),2.75
21,Cn1ncc(C2CC2)c1CN1CCC(B(O)O)C1 (stereo not shown),2.09
22,Cc1ccc(C=C(C#N)C(=O)O)cc1F,6.58
23,COc1cncc(C#N)n1,9.79
24,CC1(C)COC(=O)C1NC(=O)Nc1ccc(C2CC2)nn1 (stereo not shown),8.72
25,O=S(=O)(C=Cc1ccccc1Cl)Nc1ccncc1,10.1
26,N#CC(=Cc1cccnc1)C(=O)NC1CCCCC1,3.87
27,C=CC(=O)Nc1cccc(-c2noc(C3CCCO3)n2)c1 (stereo not shown),5.67

row,Compound,Inhibition % [%]
1,COc1ccc(OC)c(C(C)NC(=O)CCl)c1 (stereo not shown),11.2
2,Cc1ccc(Nc2nccnc2C#N)cc1C,5.08
3,Cc1cc(C=C(C#N)C(=O)O)c(C)n1CC(C)C,8.48
4,C=CC(=O)N1CCCCCC1c1noc(-c2cnn(C)c2)n1 (stereo not shown),8.62
5,COc1cccc(SCCN2C(=O)CCC2=O)c1,5.57
6,C=CC(=O)N1CCN(C)c2cc(F)ccc21,14.6
7,Cc1ccc(N(CCC#N)C(=O)CCl)cc1C,15.3
8,CN(Cc1c(F)cccc1Cl)C(=O)Cn1cnc(C#N)n1,10.3
9,Cc1conc1NS(=O)(=O)c1ccc(S(=O)(=O)F)cc1,27
10,C=CC(=O)NCC(=O)N1Cc2ccccc2C1,5.85
11,CCNC(=O)C(C#N)=Cc1ccc(O)c(OCC)c1,-0.455
12,Cl.Nc1cccc(-c2noc(=O)[nH]2)c1,17.1
13,O=C(CCl)N1CCN(S(=O)(=O)c2cccc(F)c2)CC1,5.99
14,CN(C)CCOc1ccc(B2OC(C)(C)C(C)(C)O2)cc1,3.21
15,CCc1cccc(NC(=O)CCl)c1,14.1
16,Cc1ccccc1N1C(=O)CN=C1S,2.06
17,CS(=O)(=O)OCC1CCC(F)(F)C1 (stereo not shown),3.17
18,COc1cccc2c1N(C(=O)CN1CCSC1=O)CCC2,3.52
19,CC(C)(C(=O)CCl)N1C(=O)c2ccccc2C1=O,5.76
20,N#CN(Cc1ccon1)c1cccc(F)c1,7.1
21,Cc1ccc(F)c(N(C#N)Cc2nnc(C)o2)c1,69
22,C=CC(=O)NC(c1ccc(C)cc1)C(C)S(C)(=O)=O (stereo not shown),2.52
23,O=C(C1CCOCC1)N1CC(S(=O)(=O)F)C1,21.8
24,N#CC=CS(=O)(=O)c1ccc(Cl)cc1,5.95
25,Cc1c(C#N)c(NC(=O)CCl)n(C2CCCCC2)c1C,15.6
